Among all 310,000 compounds or so, about 2,200 (0.71%) showed an effect of 50% or more. The effect is printed as a negative number. The list shows a part of the results.
The compounds below were run against human ether-à-go-go-related gene (hERG) potassium channel (human, UniProt Q12809) (assay: primary screen, population patch clamp on CHO cells stably expressing hERG).
Sequence of human ether-à-go-go-related gene (hERG) potassium channel (Q12809 whole entry, looked up): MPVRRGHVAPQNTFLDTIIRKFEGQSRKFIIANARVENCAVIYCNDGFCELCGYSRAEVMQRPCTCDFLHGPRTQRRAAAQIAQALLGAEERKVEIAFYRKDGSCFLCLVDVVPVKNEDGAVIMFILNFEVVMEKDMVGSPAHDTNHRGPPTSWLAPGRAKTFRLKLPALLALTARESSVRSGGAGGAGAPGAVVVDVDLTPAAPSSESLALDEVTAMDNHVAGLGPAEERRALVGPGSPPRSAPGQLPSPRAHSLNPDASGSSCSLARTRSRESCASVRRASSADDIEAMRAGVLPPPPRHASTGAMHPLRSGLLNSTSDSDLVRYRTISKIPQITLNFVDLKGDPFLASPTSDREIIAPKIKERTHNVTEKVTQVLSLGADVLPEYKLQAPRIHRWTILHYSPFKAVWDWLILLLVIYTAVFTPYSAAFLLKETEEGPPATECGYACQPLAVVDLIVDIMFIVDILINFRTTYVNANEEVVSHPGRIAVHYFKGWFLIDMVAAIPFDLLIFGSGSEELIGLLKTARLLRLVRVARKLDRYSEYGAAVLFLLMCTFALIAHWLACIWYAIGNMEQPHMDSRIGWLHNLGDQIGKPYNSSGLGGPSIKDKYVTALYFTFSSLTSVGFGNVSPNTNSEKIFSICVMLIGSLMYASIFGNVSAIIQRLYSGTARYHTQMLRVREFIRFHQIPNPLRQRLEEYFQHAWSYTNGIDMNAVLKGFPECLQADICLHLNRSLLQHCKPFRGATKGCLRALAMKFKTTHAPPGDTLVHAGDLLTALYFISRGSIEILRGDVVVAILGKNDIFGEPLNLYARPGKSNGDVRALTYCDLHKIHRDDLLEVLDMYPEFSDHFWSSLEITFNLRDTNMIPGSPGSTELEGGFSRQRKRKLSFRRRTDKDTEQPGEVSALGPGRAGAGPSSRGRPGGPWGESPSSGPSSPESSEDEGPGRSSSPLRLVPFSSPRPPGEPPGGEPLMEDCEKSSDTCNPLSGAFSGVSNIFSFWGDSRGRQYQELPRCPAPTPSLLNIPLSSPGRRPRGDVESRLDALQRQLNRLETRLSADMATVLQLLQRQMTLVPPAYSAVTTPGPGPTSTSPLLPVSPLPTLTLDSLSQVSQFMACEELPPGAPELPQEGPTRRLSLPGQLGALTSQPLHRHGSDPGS

Row | SMILES | hERG current change (%, negative = inhibition) at 1uM
1 | CCOC(=O)c1c(C)n(C)c2ccc(OC)c(NC(=O)CCN3CCC(Cc4ccccc4)CC3)c12 | -5.72%
2 | CCn1c(SCC(=O)NC(=O)NC(C)(C)C)nc2ccccc21 | 17.1%
3 | O=C(Nc1ccc(Cl)cc1)Nc1ccc(N2CCOCC2)cc1 | 14.1%
4 | CC(=O)c1c(C)[nH]c(C(=O)Nc2ccccc2N2CCOCC2)c1C | 1.92%
5 | O=C(COc1ccc(S(=O)(=O)N2CCCCC2)cc1)NCc1cccnc1 | 3.12%
6 | Cc1cc(C)c(NC(=O)c2ccccc2N(C)S(C)(=O)=O)c(C)c1 | 8.21%
7 | N#CCC(=N)N1CCN(c2cccc(Cl)c2)CC1 | -2.69%
8 | COc1cc(O)cc2c1C(=O)OC(C)CCCC(=O)CCC/C=C\2 (stereo not shown) | 13.6%
9 | CC1CC(NC(=O)C2C3CCC(O3)C2C(=O)O)CC(C)(C)C1 (stereo not shown) | 7.28%
10 | COc1ccc(/C=C2\SC(=S)N(CCC(=O)NC3C=CS(=O)(=O)C3)C2=O)cc1 (stereo not shown) | -4.5%
11 | CN(CC(=O)Nc1ccccc1Br)C(=O)C(Cc1ccccc1)NC(=O)c1ccccc1 (stereo not shown) | 8.52%
12 | CC(=O)Nc1ccc(N/C=C(\C#N)S(=O)(=O)c2ccc(Cl)cc2)cc1 | 11.1%
13 | COc1cc(CN2CCN(S(=O)(=O)c3ccc(NC(C)=O)cc3)CC2)cc(OC)c1O.O=C(O)C(=O)O | 6.99%
14 | CCOC(=O)c1c(NC(=O)COc2ccccc2)sc2c1CC(C)(C)NC2(C)C | 10.8%
15 | Cc1cccc(NC(=O)COC(=O)c2cc(C)n(C3CC3)c2C)c1 | 8.99%
16 | CS(=O)(=O)c1cnc(-c2cccnc2)nc1N | 6.79%
17 | O=Cc1ccccc1Oc1ccccc1 | 10.7%
18 | CCc1ccc(NC(=O)C(CC)Sc2nc3cc4c(cc3c(=O)n2Cc2ccco2)OCO4)cc1 (stereo not shown) | 8.57%
19 | COc1ccccc1N1CCN(C(=O)c2cc(-c3ccc(Br)cc3)on2)CC1 | 20%
20 | COc1ccc(C(=O)NC(=S)Nc2cc(C)ccn2)cc1[N+](=O)[O-] | 17.3%
21 | COCCNC(=O)C(c1ccc(F)cc1)N(Cc1cccs1)C(=O)CCC(=O)Nc1ccccn1 (stereo not shown) | 16.6%
22 | NNC(=S)Nc1ccc(Cl)cc1 | 7.28%
23 | CC(C)(C)NC(=S)NC(=O)C12CCC3CC(CC(C3)C1)C2 | 1.94%
24 | Cn1c(SC(C(=O)Nc2ccc(F)cc2)c2ccccc2)nc2ccccc21 (stereo not shown) | 10.2%
25 | CCCOc1ccc(/C=C/c2c([N+](=O)[O-])c(=O)n(C)c(=O)n2C)cc1 | 15.3%
26 | Cc1ccc(S(=O)(=O)/C(C#N)=C/c2c(N3CCOCC3)nc3c(C)cccn3c2=O)cc1 | -21.2%
27 | COc1ccc(Cn2nnnc2C(c2cccs2)N2CCN(c3ccccc3)CC2)cc1 (stereo not shown) | 9%
28 | COCCN(C(=O)CCC(=O)Nc1cc(C)on1)C(C(=O)NC(C)(C)C)c1cccc(OC)c1OC (stereo not shown) | 8.83%

Row | SMILES | hERG current change (%, negative = inhibition) at 1uM
29 | COC(=O)c1ccc(C(=O)OC)c(NC(=O)CS(=O)(=O)Cc2ccccc2)c1 | -7.98%
30 | Cc1ccc2occ(/C=N/NC(=O)c3ccccc3C)c(=O)c2c1 | 12.8%
31 | O=C(Cc1ccsc1)Nc1ccc(Cl)cc1Cl | 16%
32 | Cc1ccc(-c2csc3ncnc(SCC(=O)O)c23)cc1 | 1.72%
33 | CCN=C1S/C(=C\c2cn(CC(=O)NCc3ccco3)c3ccccc23)C(=O)N1CC | 13.8%
34 | N#Cc1c2c(c(NCCCN3CCOCC3)n3c1nc1ccccc13)CCC2 | -10.1%
35 | CCc1ccc(-c2cc(C)no2)cc1S(=O)(=O)Nc1cc(C)on1 | 13.8%
36 | Cc1sc(NC(=O)c2ccco2)nc1-c1ccccc1 | 12.7%
37 | O=C(Nc1cc(C(F)(F)F)cc(C(F)(F)F)c1)c1ccc(Cn2cc(C(F)(F)F)ccc2=O)cc1 | 7.82%
38 | O=C(OCc1nc2ccccc2s1)[C@@H]1CCCN1S(=O)(=O)c1ccccc1F | 4.54%
39 | O=C(Nc1ccncc1)C1CCN(S(=O)(=O)c2cccs2)CC1 | 11.1%
40 | COc1ccc(-c2nnc(SC(C)C(=O)NC3CC3)o2)cc1 (stereo not shown) | 12.3%
41 | Cc1ccc(/C=C/C(=O)Nn2cnnc2)cc1 | 8.62%
42 | Br.CCN(CC)CCn1c(=N)n(CC(=O)c2ccc(Br)s2)c2ccccc21 | -6.42%
43 | Cc1ccc(S(=O)(=O)c2nc(Cc3ccccc3)oc2N2CCOCC2)cc1 | 2.15%
44 | O=C(CCn1cccc1)Nc1cccc(F)c1 | -11%
45 | CC(=O)c1cccc(NC(=O)c2ccc(C)o2)c1 | 12.2%
46 | COc1cc(/C=C2\SC(=S)N(NC(=O)c3ccncc3)C2=O)ccc1O | 13.3%
47 | COCCn1c(SCC(=O)NC(C)c2ccccc2)nc2ccccc21 (stereo not shown) | -5.32%
48 | COCC(C)N1CC(O)=C(c2nc(-c3ccc(Cl)cc3)cs2)C1=N (stereo not shown) | 13.5%
49 | ON=C1CCN(c2ncc(C(F)(F)F)cc2Cl)CC1 | -9.39%
50 | O=C(CSc1ccc(F)cc1)NNC(=O)c1ccccc1Br | 17.2%
51 | O=C(OCc1ccccc1)/C(=C/c1cccc2ccccc12)NC(=O)c1ccccc1 | 10.4%
52 | NNC(=O)c1oc2nc(-c3ccccc3)cc(-c3ccco3)c2c1N | 3.36%
53 | CCC(C)N(C(=O)CSc1nc(C)nc2ccccc12)C1CCS(=O)(=O)C1 (stereo not shown) | -11.1%
54 | COc1ccc(CNC(=O)[C@@H]2CC=C[C@@H]3CCN(Cc4ccccc4)C(=O)[C@@H]32)cc1 | 12.7%
55 | O=C(CN(Cc1ccc(F)cc1)C(=O)c1csnn1)NCc1ccc2c(c1)OCO2 | -8.89%

From publication PMC4336329 (PLoS ONE, 2015)
